# The list shows a part of the results.
# System: HepG2
# Assay: cytotoxicity call (relative viability < 0.9)
# Settings: 10 µM
row,Structure (SMILES),cytotoxicity call
1,Cc1ccc(S(=O)(=O)N2C[C@H](O)COC[C@H]3O[C@H](CC(=O)N[C@H]4CCN(Cc5ccccc5)C4)CC[C@@H]32)cc1,inactive
2,Cc1ccc(S(=O)(=O)Nc2ccc3c(c2)CC(=O)N([C@@H](C)CO)C[C@@H](C)[C@H](CN(C)Cc2ccc(Oc4ccccc4)cc2)O3)cc1,inactive
3,C[C@@H]1CN([C@H](C)CO)C(=O)c2cccc(NC(=O)C3CC3)c2O[C@@H]1CN(C)Cc1ccc(-c2ccccc2)cc1,inactive
4,C[C@@H]1CN([C@H](C)CO)S(=O)(=O)c2ccc(-c3ccc(F)cc3)cc2O[C@H]1CN(C)C(=O)C1CCOCC1,inactive
5,Cn1cnc(S(=O)(=O)N2C[C@@H](O)COC[C@H]3O[C@H](CC(=O)NCc4cc(F)cc(F)c4)CC[C@@H]32)c1,inactive
6,C[C@@H]1CN([C@H](C)CO)C(=O)c2cccc(NC(=O)c3ccc(-c4nccs4)cc3)c2O[C@H]1CN(C)Cc1ccc(Cl)c(Cl)c1,inactive
7,[N-]=[N+]=Nc1ccccc1[C@@H]1OC(c2ccc(OCCCO)cc2)=N[C@]1(Cc1ccccc1)C(=O)N1CCCCC1,inactive
8,C[C@H]1CN([C@@H](C)CO)C(=O)c2cccc(NC(=O)c3ccc(-c4nccs4)cc3)c2O[C@@H]1CN(C)CC1CCCCC1,inactive
9,COc1cccc(C(=O)Nc2ccc3c(c2)C(=O)N(C)[C@@H]2CC[C@@H](CC(=O)NCC4CC4)O[C@H]2CO3)c1,inactive
10,O=C(C[C@H]1CC[C@H]2[C@@H](COC[C@@H](O)CN2S(=O)(=O)c2ccc(F)cc2)O1)NCc1ccncn1,inactive
11,COC(=O)c1cnn2c(=O)cc(C)[nH]c12,inactive
12,Cc1cc(C(=O)Nc2cccc3c2O[C@@H](CN(C)Cc2ccncc2)[C@H](C)CN([C@@H](C)CO)C3=O)n(C)n1,inactive
13,COc1ccc(S(=O)(=O)N(C)C[C@@H]2Oc3ccc(NC(=O)NC(C)C)cc3CC(=O)N([C@H](C)CO)C[C@@H]2C)cc1,inactive
14,C[C@@H]1CN([C@@H](C)CO)S(=O)(=O)c2ccc(-c3cccnc3)cc2O[C@@H]1CN(C)C(=O)NC1CCCCC1,inactive
15,Cc1noc(C)c1S(=O)(=O)Nc1ccc2c(c1)CC(=O)N([C@H](C)CO)C[C@@H](C)[C@H](CN(C)Cc1ccccc1)O2,inactive
16,COCC#Cc1ccc2c(c1)O[C@@H](CN(C)Cc1ccccc1F)[C@@H](C)CN([C@H](C)CO)S2(=O)=O,inactive
